# Measured values from article PMC12040169 (PLOS Biology, 2025).
# The list shows a part of the results.
# Test system: T1, C. trachomatis L2/434/Bu expressing GFP (CTL2-GFP)
# T1 construct: L2/434/Bu GFP intracellular growth in HeLa cells
# Parameters: species or system HeLa; C. trachomatis total inclusion area by high-content imaging, normalised to DMSO
# Settings: total inclusion area; 28.5 h, 10 µM; inhibitor
# Procedure, shortened: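 Imaging read-out: GFP inclusions and Hoechst nuclei captured by high-content imaging after fixation. Inclusion area/number = chlamydial growth; nuclei count = host cell viability. MIC calculated per earlier method.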
row,Compound,% of control remaining
1,O=S(=O)(CC(CN1CCCCC1)N1CCCCC1)c1ccc2ccccc2c1 (centres unmarked) [CBK267087],79.0712
2,COC(=O)c1cc(NC(=O)OC(C)(C)C)ccc1O [CBK016529],55.0513
3,Cc1cc(COC(=O)Nc2ccc(Cl)cc2)no1 [CBK086560],70.9517
4,CCOc1ccc(-c2ccnc(N3CCN(CC)CC3)n2)cc1C(=O)O [CBK307697],74.2557
5,N=C(N)NCc1ccc(Cl)cc1 [CBK002260],99.6404
6,Nc1ccc(Oc2ccc3nc4c5cc(I)ccc5c5ccc(I)cc5c4nc3c2)cc1 [CBK261978],71.9706
7,O=C1NC2CS(=O)(=O)CC2N1Cc1ccccc1 (centres unmarked) [CBK009306],77.0203
8,Nc1nnc(Sc2nccnc2N2CCCC2)s1 [CBK093804],100.415
9,Nc1ncnc2c1nc(SCc1ccccc1)n2Cc1ccccc1 [CBK288181],97.6015
10,NC(=O)[C@@H]1C[C@@H](O)[C@H](O)[C@H]2[C@@H]1N(c1ccc(Cl)cc1)C(=S)N2CC1CCCCC1 [CBK288933],103.282
11,CCN(Cc1ccccc1)C(=O)Nc1ccc2c(c1)OCCO2 [CBK155231],110.388
12,O=C(CN1C(=O)c2ccccc2S1(=O)=O)Nc1ccccc1C(=O)N1CCOCC1 [CBK266975],116.048
13,C[C@H](NC(=O)C1CCN(C(=O)OC(C)(C)C)CC1)C(=O)O [CBK286730],70.0218
14,COCC(=O)N1CCN(C(=O)c2cccs2)[C@@H](C(=O)OC)C1 [CBK289614],82.3606
15,COc1cc(CNc2cncc(-c3ccc(F)cc3F)n2)cc(OC)c1OC [CBK065826],79.2604
16,O=C(CCc1ccccc1)NNC(=O)C1C2C=CC(C2)C1C(=O)O (centres unmarked) [CBK267541],112.973
17,CCCc1ccc(S(=O)(=O)NCC(=O)OCC)cc1 [CBK034429],61.1116
18,O=S(=O)(Oc1ccc(-c2cnc3ccccc3n2)cc1)c1ccccc1 [CBK261104],106.496
19,CCOC(=O)c1c(NC(=O)CN2CCCCC2)sc2c1CCCC2O (centres unmarked) [CBK261644],98.1406
20,CC[C@H]1C[N@@]2CC[C@H]1C[C@@H]2CNC(=O)Nc1cccc(C#N)c1 [CBK288748],105.782
21,CCc1cc(CNC(=O)C2CN(Cc3ccc(Cl)cc3)C2)on1 [CBK281564],86.1014
22,Fc1ccc(CN2CCC3(C2)c2[nH]c4ccccc4c2CCN3Cc2ccc(F)cc2)cc1 (centres unmarked) [CBK059467],96.1531
23,Cc1cc(C[C@@H]2CCC[C@H]2NCc2ccncc2)on1 [CBK284934],91.3974
24,O=C1CC2(CCN(C(=O)c3ccccc3F)CC2)Oc2c(Cl)cc(Cl)cc21 [CBK156453],92.7831
25,C/C(C(=O)O)=C(/C)C(=O)N1CCC2(CC1)NCCc1c2[nH]c2ccc(C)cc12 [CBK047026],91.4726
26,O=C(CN1CCC(NC(=O)c2cccs2)CC1)NCc1ccccc1F [CBK304901],79.1675
27,O=C(CSc1ccccc1)Nc1cccc(NC(=O)c2cccs2)c1 [CBK266788],98.4725

row,Compound,% of control remaining
1,O=C(Nc1nccs1)c1c(O)n(Cc2ccccc2)c2ccccc2c1=O [CBK291173],112.134
2,Cc1ccc(-c2ccc(CCC(=O)O)n2NC(N)=S)cc1 [CBK265870],145.798
3,O=C(c1ccc2ncccc2c1)N1CCc2ccccc21 [CBK200403],113.768
4,Cc1cc(Br)cc(C)c1OCCNCCN(C)C [CBK267808G],69.2831
5,FC(F)(F)c1nc2ccccc2nc1SCCc1ccccc1 [CBK107204],100.309
6,CCC(CC)C(=O)N1CCC(CNc2cnc(-c3ccc(S(C)(=O)=O)cc3)cn2)CC1 [CBK172021],70.2048
7,O=C(C1CC1)N1CCCC(c2nc(-c3cccs3)no2)C1 (centres unmarked) [CBK281944],111.061
8,O=C1CC(NCc2ccc3c(c2)OCO3)C(=O)N1c1ccc(OC(F)(F)Cl)cc1 (centres unmarked) [CBK074357],86.1752
9,Cc1nnnn1-c1ccc(CC(=O)N2CCc3sccc3C2c2ccccc2)cc1 (centres unmarked) [CBK285567],82.235
10,COCCOCN1C(=O)CC2(C1=O)C(=O)N(CC(=O)O)c1ccc(F)cc12 (centres unmarked) [CBK076163],84.3552
11,COC(=O)c1cc(C(=O)Nc2ccc(OCCC(N)=O)cc2)c[nH]1 [CBK305486],24.1021
12,NS(=O)(=O)c1ccc(CCNC(=O)c2ccccc2Oc2ccccc2)cc1 [CBK264394],113.235
13,Cc1ccc(C(=O)NCc2cccnc2)c(N2CCN(C(=O)c3ccco3)CC2)n1 [CBK076444],98.2068
14,CC1=CC(c2ccccc2)N2N=C(NC(=O)CCCC(=O)O)NC2=N1 (centres unmarked) [CBK287037],101.844
15,CC(C)NC(=O)C1CC2CCC1(C)CC21NC(=O)c2ccccc2O1 (centres unmarked) [CBK285261],84.8266
16,Cc1cccnc1C(NC(=O)C1CCN(S(=O)(=O)c2cccs2)CC1)c1cccs1 (centres unmarked) [CBK060147],91.8769
17,Cc1ccc(SC(C)C(=O)Nc2cc(Cl)ccc2O)cc1 (centres unmarked) [CBK268610],73.0501
18,O=C(c1ccccn1)C1CCCN(c2nccc(CCC(F)(F)F)n2)C1 (centres unmarked) [CBK306775],55.9002
19,CCCNCCc1ccc2c(c1)C(=O)N(Cc1ccc(OC)cc1)C2=O [CBK011826C],109.273
20,COc1cccc(NC(=O)c2cc3ccccc3o/c2=N\O)c1 [CBK288387],64.0948
21,CCOC(=O)c1cnc(C2CC2)nc1NCc1cccc(C)c1C [CBK114707],101.226
22,O=c1oc(-c2cccc(F)c2)nc2cc(Cc3ccc4c(=O)oc(-c5cccc(F)c5)nc4c3)ccc12 [CBK262775],89.3856
23,Cc1nc2ccc(C(=O)N(C)CCN(C)C)cn2c1N(C)CC1CCCCC1 [CBK145894],98.7176
24,Cc1cn(C(C)C(=O)N(C)C)nc1C1CCCCC1 (centres unmarked) [CBK016092],59.7214
25,CC(C)c1ccc(N2C(=O)[C@@H]3C[C@@H](NC(=O)c4cccn4C)CCN3C2=O)cc1 [CBK289547],117.461
26,Cc1nnc(N/N=C/c2cn(Cc3c(F)cccc3Cl)c3ccccc23)n1N [CBK278277C],106.561
27,Cc1ccc(S(=O)(=O)N2CCN(CC(O)COc3ccc4ccccc4c3)CC2)cc1 (centres unmarked) [CBK266239],107.274

row,Compound,% of control remaining
1,O=C(c1n[nH]nc1-c1ccccc1)N1CCCC(C(F)(F)F)C1 (centres unmarked) [CBK164228],70.3816
2,Cn1ccnc1CN1CCNC(=O)C1c1ccccc1C(F)(F)F (centres unmarked) [CBK306415],75.7883
3,CCCNc1cncc(-c2cccc(F)c2)n1 [CBK065441],67.4554
4,CC(=O)N1CCN(c2ccc(NC(=O)CSc3ccc(C)cc3)cc2)CC1 [CBK269854],118.511
5,O=C(CCc1ccncc1)N1CCOC(c2ccc(F)cc2F)C1 (centres unmarked) [CBK304692],66.0475
6,O=C(Cn1c(C2CCCNC2)cc2cccnc21)N1CCCC1 (centres unmarked) [CBK285060],87.3465
7,COC(=O)c1cccc(COC(=O)c2ccc3nc(C)c(C)nc3c2)c1 [CBK269641],77.7231
8,CC(C)(C)C(=O)N1CCC(c2nnc(-c3ccsc3)o2)CC1 [CBK283378],99.7658
9,CCN1C(=O)COC[C@@H]1[C@H](O)c1ccc(NC(=O)COc2ccccc2)cc1 [CBK289685],115.204
10,CN(C)CCSc1nc2cc(Cl)ccc2o1 [CBK266337C],102.702
11,COc1ccc(N2CCN(c3cncc(-c4cccc(N)c4)n3)CC2)cc1OC [CBK066126],137.616
12,COc1ccccc1CNC(=O)c1cnc2sc(C)cn2c1=O [CBK287708],85.0398
13,COc1cc(C(c2nnnn2C2CCCCC2)N2CCN(C)CC2)cc(OC)c1OC (centres unmarked) [CBK142338C],89.6075
14,COc1cc(/C=N/N=C(/Nc2ccc(C)cc2)c2nc3ccccc3s2)ccc1O [CBK265029],101.187
15,O=C(O)C1(c2ccc(Br)cc2)CCCC1 [CBK287134],84.0391
16,O=C(O)c1ccn(-c2ccc(NS(=O)(=O)c3ccc(N4CCCC4=O)cc3)cc2)n1 [CBK298327],83.4471
17,Cc1nc(-c2ccc(CNC(=O)C(Cc3ccccc3)N3CCCC3)cc2)ccc1C(N)=O (centres unmarked) [CBK286017],101.299
18,CCc1nc2c(OCC3CCCCC3)cccn2c1N(C=O)Cc1ccc(OC)cc1 [CBK147811],80.0879
19,CC(=O)N1CCc2cc(C(=O)CN3CCOCC3)ccc21 [CBK291105],96.979
20,Cc1cccnc1C1(O)CCN(C(=O)NCc2ccccc2)CC1 [CBK282293],93.6658
21,Cc1c(C(=O)O)sc(S(=O)(=O)N2CCN(C(=O)Cc3ccsc3)CC2)c1C(=O)O [CBK297134],87.5406
22,CCN(CC(C)C#N)C(=O)c1ccc2ccccc2n1 (centres unmarked) [CBK304801],61.9716
23,CC1CC(C)CN(C(=O)CN2C3CCC2CC(O)(c2ccco2)C3)C1 (centres unmarked) [CBK284032],114.935
24,O=C(N[C@H]1CCN2C(=O)N(c3cccc4nsnc34)C(=O)[C@@H]2C1)c1ccnc(Cl)c1 [CBK289545],105.436
25,O=C1NCCc2c1[nH]c1ccc(Cl)cc21 [CBK015755],75.4804
26,CS(=O)(=O)N1CCCc2cc(C(=O)O)ccc21 [CBK287072],112.72
